From article PMC4336329 (PLoS ONE, 2015)
About 14,000 (4.5%) of roughly 310,000 compounds showed an effect of 50% or more. The effect is printed as a negative number. This is one part of the list.

biological target: human ether-à-go-go-related gene (hERG) potassium channel (human, UniProt Q12809); test: primary screen, population patch clamp on CHO cells stably expressing hERG
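Note: peak tail current of the secondary pulse compared with the same well before compound.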

human ether-à-go-go-related gene (hERG) potassium channel, sequence (Q12809 whole entry, looked up): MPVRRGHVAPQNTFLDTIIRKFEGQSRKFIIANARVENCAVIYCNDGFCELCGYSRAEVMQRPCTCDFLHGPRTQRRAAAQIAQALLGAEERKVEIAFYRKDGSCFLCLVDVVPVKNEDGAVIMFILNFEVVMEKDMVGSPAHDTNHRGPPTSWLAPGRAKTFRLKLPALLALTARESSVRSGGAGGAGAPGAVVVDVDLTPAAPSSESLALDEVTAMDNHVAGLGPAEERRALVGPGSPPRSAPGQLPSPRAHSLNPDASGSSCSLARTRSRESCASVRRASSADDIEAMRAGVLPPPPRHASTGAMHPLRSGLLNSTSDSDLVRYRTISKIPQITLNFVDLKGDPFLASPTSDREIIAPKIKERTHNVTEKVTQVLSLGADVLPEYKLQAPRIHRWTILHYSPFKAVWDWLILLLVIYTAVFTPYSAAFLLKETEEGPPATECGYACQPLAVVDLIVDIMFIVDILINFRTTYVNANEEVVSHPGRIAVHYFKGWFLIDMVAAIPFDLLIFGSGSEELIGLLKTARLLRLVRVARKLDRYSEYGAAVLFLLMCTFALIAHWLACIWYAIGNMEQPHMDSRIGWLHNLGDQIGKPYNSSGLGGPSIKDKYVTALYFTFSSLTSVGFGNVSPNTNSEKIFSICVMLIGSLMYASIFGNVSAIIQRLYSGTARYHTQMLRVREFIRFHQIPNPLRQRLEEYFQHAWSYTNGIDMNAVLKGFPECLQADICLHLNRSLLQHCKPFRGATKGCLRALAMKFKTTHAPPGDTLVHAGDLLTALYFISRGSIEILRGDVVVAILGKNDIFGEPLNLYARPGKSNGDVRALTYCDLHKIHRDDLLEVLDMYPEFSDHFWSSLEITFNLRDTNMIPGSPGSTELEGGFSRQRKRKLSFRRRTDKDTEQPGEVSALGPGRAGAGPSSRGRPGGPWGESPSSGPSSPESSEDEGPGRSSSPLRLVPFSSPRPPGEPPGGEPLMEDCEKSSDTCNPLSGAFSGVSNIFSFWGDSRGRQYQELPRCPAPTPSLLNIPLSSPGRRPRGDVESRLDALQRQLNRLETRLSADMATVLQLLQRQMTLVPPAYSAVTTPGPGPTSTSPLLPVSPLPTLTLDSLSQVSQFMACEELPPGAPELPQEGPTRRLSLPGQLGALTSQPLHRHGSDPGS

| Structure (SMILES) | hERG current change (%, negative = inhibition) at 10uM [%] |
| --- | --- |
| COc1ccc(N(CC(=O)NCc2ccco2)S(C)(=O)=O)cc1 | 4.49 |
| CCCCN(CCCC)S(=O)(=O)c1ccc(NC(=O)c2cccs2)cc1 | 13 |
| CC(C)c1ccc(C(=O)N2CCCN(C(=O)c3ccc(C(C)C)cc3)CC2)cc1 | -32.9 |
| N#C/C(=C(/O)COC(=O)CSc1ccc2ccccc2c1)c1nc2ccccc2[nH]1 | 0.289 |
| COc1cccc(NC(=S)N(CCN(C)C)C(C)c2cccnc2)c1 (centres unmarked) | -4.56 |
| CCOC(=O)c1[nH]c(C)c(C(=O)N2CCN(c3ccccc3)CC2)c1C | -13.2 |
| COCCNC(=O)c1cc(-c2ccccc2)n(CC2CC(c3ccc(OC)cc3)=NO2)n1 (centres unmarked) | -10.7 |
| COc1ccc(NC(=O)CO/N=C/C(=O)Nc2ccccc2C)c([N+](=O)[O-])c1 | -14.7 |
| CC(C)CC1=C/C(=C/c2ccc(-c3ccccc3)o2)C(=O)O1 | 3.19 |
| CCc1nnc(NS(=O)(=O)c2ccc(N/C=C\C(=O)c3ccc(C)cc3)cc2)s1 | 5.71 |
| CC(C)(C)c1nn2cnnc2n(/N=C/c2ccccc2)c1=O | 0.246 |
| CC(Cc1ccccc1)C(=O)NCc1ccccn1 (centres unmarked) | 7.34 |
| CCOc1nc(-c2ccccc2)ccc1-c1noc(-c2ccco2)n1 | 10.3 |
| O=C(OCC(=O)N1CCc2ccccc21)c1c2c(nc3ccccc13)CCCC2 | 1.29 |
| CCOCCCN(C(=O)c1snc(C(N)=O)c1N)C(C(=O)NC1CCCC1)c1ccc(OC)cc1 (centres unmarked) | -60.5 |
| CCOC(=O)C1CCN(C(=O)/C=C/c2ccccc2)CC1 | -16.8 |
| COc1ccccc1Oc1coc2c(CN3CCN(C)CC3)c(O)ccc2c1=O | -23.2 |
| Cc1nc(-c2cccc(C(F)(F)F)c2)sc1C(=O)O | 29.2 |
| Cc1ccc(S(=O)(=O)N2CCCC2)cc1[N+](=O)[O-] | -9.28 |
| COc1ccc(OC)c(S(=O)(=O)NCCCN2CCCC2=O)c1 | 8 |
| C#CCOCCOCCOCCNc1nc(N2CCN(C(=O)C([C@@H](C)CC)n3cc(C(N)CC(C)C)nn3)CC2)nc(N2CCN(C(=O)[C@H](CCCCN)n3cc(C(N)COC(=O)C(F)(F)F)nn3)CC2)n1.Cl (some centres unmarked) | -0.506 |
| O=C(NCC(c1ccco1)N1CCCCC1)c1cccc(S(=O)(=O)Nc2ccccc2Cl)c1 (centres unmarked) | -2.33 |

| Structure (SMILES) | hERG current change (%, negative = inhibition) at 10uM [%] |
| --- | --- |
| CCOC(=O)c1c(-c2ccccc2)csc1NC(=O)c1ccc(S(=O)(=O)N2CC(C)OC(C)C2)cc1 (centres unmarked) | -3.2 |
| CCN(CC)S(=O)(=O)c1ccc(/C=C/C(=O)N(c2ccccn2)C2CCCCC2)cc1 | 21.7 |
| CCC(=O)N1CCN(c2ccc(Cl)cc2NC(=O)c2ccc(Br)o2)CC1 | -11.8 |
| O=C1CC(=O)N(Cc2cccs2)C(=O)N1 | 4.3 |
| COC(=O)c1c(C)oc(C)c1S(=O)(=O)NCc1cccs1 | 4.21 |
| COc1ccc(NC(=S)Nc2cccc(C(C)=O)c2)cc1OC | -3.31 |
| CCn1nc(CC(=O)Nc2nnc(CC(=O)N3CCOCC3)s2)c2ccccc2c1=O | 17.7 |
| CCOC(=O)c1cc(NC(=O)CCC(=O)O)ccc1N1CCCCC1 | 11.9 |
| CCOC(=O)c1c(S(=O)(=O)NCCc2ccco2)c(C)n(C)c1C | -1.25 |
| COc1ccc(N(Cc2cc(=O)[nH]c3ccccc23)C(=O)C(C)C)cc1 | 1.44 |
| COc1ccccc1[C@@H]1C(c2cccc(C)c2)=NN(c2ccccc2)[C@H]1C(=O)N1CCOC1=O | 16.5 |
| O=S(=O)(c1ccc(Cl)cc1)N1CCN(C2CCCCCC2)CC1 | -17.3 |
| COc1cc(/C=C/C(=O)OCC(=O)NC(=O)NCc2ccccc2)ccc1OCC#N | 1.53 |
| COc1ccccc1C(C)NC(=O)CN(C)CC(=O)Nc1c(C)cccc1C (centres unmarked) | -11.6 |
| O=C(c1ccc(F)cc1)N1CCC2(CC1)OCCO2 | 19 |
| COc1ccc(NC(=O)CSc2ccc3nnc(-c4cccnc4)n3n2)c(OC)c1 | -32.4 |
| O=C(NCCC1=CCCCC1)c1cc(-c2ccncc2)nc2ccccc12 | 6.78 |
| COC(=O)c1cc(CNC(=O)c2ccc(S(=O)(=O)N(C)c3ccccc3)cc2)ccc1OC | -13.2 |
| COc1cc(NS(=O)(=O)c2ccc(NC(=S)NC(C)=O)cc2)nc(OC)n1 | 10.9 |
| O=C(NCCCN1CCOCC1)c1cc2cc(Br)ccc2oc1=O | -17.5 |
| O=C(NC1CCCCC1)c1cnn2c(C(F)(F)F)cc(-c3ccco3)nc12 | -29.1 |
| O=C(O)CN(c1ccc(F)cc1)S(=O)(=O)c1ccc2c(c1)OCCO2 | -2.07 |

| Structure (SMILES) | hERG current change (%, negative = inhibition) at 10uM [%] |
| --- | --- |
| Oc1ccc2oc3c(c2c1/C=N/n1cnnc1)CCCC3 | -7.26 |
| COC(=O)C1=C(C)N(Cc2ccccc2)C(=NCCc2ccccn2)N[C@H]1c1cccc(F)c1 | -60.4 |
| Br.N=C1CCCN1CC(=O)c1ccc(Br)cc1 | -15.4 |
| CC(CNC(=O)c1ccccc1[N+](=O)[O-])NC(=O)c1ccccc1[N+](=O)[O-] (centres unmarked) | 1.57 |
| CCOc1ccccc1N1CCN(CC(=O)c2c(N)n(C)c(=O)n(C)c2=O)CC1 | -3.65 |
| Cl.NC(CO)C(=O)NNCc1ccc(O)c(O)c1O (centres unmarked) | 14 |
| Cc1cccc(CSC2=NCCN2S(=O)(=O)c2ccc(F)cc2)c1 | -0.802 |
| CCc1cccc(NC(=O)CCCn2nc(CC)n3c(cc4occc43)c2=O)c1 | -38.8 |
| OCC[C@@H]1C[C@@H](O)[C@H](O)[C@]2(Cc3ccccc3O2)O1 | 11.3 |
| CNC(=O)NC(=O)C(NC1CCCc2ccccc21)c1ccccc1 (centres unmarked) | 19.5 |
| O=C(NC1CCCCC1)c1cc(-n2cnnc2)ccc1Cl | 5.4 |
| O=C(COC(=O)c1ccccc1NC(=O)c1ccco1)NC1CC1 | -19 |
| CC(=O)Nc1ccc(S(=O)(=O)NCC(=O)OCC(=O)NNC(=O)c2ccccc2)cc1 | 4.77 |
| CN(C)/C=C(\C#N)S(=O)(=O)c1ccc(Cl)cc1 | 8.4 |
| O=C(CCN1CCN(c2ccccc2)CC1)NNC(=O)c1cccc2ccccc12 | -11 |
| COc1ccc(N2CSC3=C(C#N)C(c4cc(OC)c(OC)cc4OC)CC(=O)N3C2)c(OC)c1 (centres unmarked) | -32.2 |
| Cn1c(SCC(=O)NCc2ccccc2)nnc1C1CC1 | 12.4 |
| O=C(O)COc1c(F)c(F)c(C(F)(F)F)c(F)c1F | 7.86 |
| COC(=O)c1cc(C)sc1NC(=O)CCc1ccccc1 | 5.4 |
| CN1CCC(OC(=O)C23CCC(C)(C(=O)O2)C3(C)C)CC1 (centres unmarked) | 2.79 |
| CCOC(=O)C1=C(Nc2ccc(Cl)cc2)OCC1=O | 6.4 |
| O=C(O/N=C/C1=C(Cl)c2ccccc2CC1)c1ccc(F)cc1 | 2.06 |

| Structure (SMILES) | hERG current change (%, negative = inhibition) at 10uM [%] |
| --- | --- |
| CN(C(=O)CCc1nc2ccccc2s1)c1ccccc1 | -11.6 |
| O=C(CN1CCN(c2ccc(F)cc2)CC1)Nc1ccc(S(=O)(=O)N2CCOCC2)cc1 | 0.845 |
| COc1ccc(Cc2c3cc(OC)c(OC)cc3cc[n+]2C)cc1OC.[I-] | 12.3 |
| CCC(CC)NC(=O)c1oc2ccccc2c1COc1ccccc1 | -23.4 |
| CCOc1ccc(-c2cn[nH]c2N)cc1 | -5.03 |
| Nc1ccc(OCc2ccccc2)cc1 | -0.533 |
| O=C(Cc1c2ccccc2nc2ccccc12)c1ccccc1 | 43.2 |
| Cc1ccc(S(=O)(=O)N2CCC(C(=O)C3C(=O)CC(C)(C)CC3=O)CC2)cc1 | 20 |
| Cc1c(CC(=O)NCCCC(=O)O)c(=O)oc2c(C)c3oc4c(c3cc12)CCCC4 | 13.9 |
| CC(C)Oc1ccc2c(c1)OC(c1ccccc1)(C(F)(F)F)NC2=O (centres unmarked) | -1.44 |
| CCn1c(C)nc2cc(C(=O)NNS(=O)(=O)c3c(F)cc(F)c(Cl)c3F)ccc21 | 0.721 |
| COC(=O)C1CCN(C(=O)c2c(-c3ccccc3Cl)noc2C)CC1 | 18.2 |
| COC(=O)/C(C#N)=C/c1occc1C | 0.0829 |
| CCOC(=O)N1CCN(S(=O)(=O)c2ccc(C(=O)N(CCN(C)C)c3nc4c(C)cccc4s3)cc2)CC1.Cl | -37.5 |
| Cc1cc(C)c(C#N)c(SCCS(=O)(=O)c2ccc(Cl)cc2)n1 | -5.2 |
| COc1ccccc1C(C)NS(=O)(=O)c1cccs1 (centres unmarked) | 11.9 |
| Cc1cc(C)c(NC(=O)CSc2nc3ccc(NC(=O)CSc4nnnn4Cc4ccccc4)cc3s2)c(C)c1 | 0.987 |
| Cc1nc(Nc2ccc(Cl)cc2)c2oc3ccccc3c2n1 | 3.95 |
| O=c1[nH]c(=O)n(CCc2ccccc2)c(O)c1C=NCc1ccc2c(c1)OCO2 | -4.95 |
| Cc1ccc(C(=O)Nc2c(C)cc(-c3ccc(Cl)cc3)oc2=O)cc1 | -6.18 |
